Here are results for 167 variants from the RNAGym collection of RNA variant scans (doi:10.7554/elife.90254).

To fix the notation:
B1: LINE1-mini (parent)
chain: GGCAGAGCUCAACACAGCGUGGCAAAGUGGCUGUGGCUAGACUGCC

The source gives no read counts; variants with many changes may rest on few reads.

In this series the parent is B1. The series can be described thus: self-cleavage, relative activity (ratio to wild type); higher = more cleavage; in vitro, sequencing; the parent is a self-cleaving ribozyme.
Consider G7U C13U G29U, for which the self-cleavage stood at 0.05. For G17U C31U U34G, the self-cleavage was determined as 0.01. Under C10A C18U A24G G36C G40C stands 0; under G2A A24U G27U, 0.15. The result for C8A A14G G40U reads 0.1; that for A14G C23A C37U C45A, 0.03; that for G33U G35C G40C, 0.01. Under C3U G17A C37A stands 0.07; under C10A C13U A16G G19U, 0.01; under U9G C18A U20G G22U U28C C46U, 0.02.

On to A11G G29U U32G, for which the self-cleavage was determined as 0.01. The result for G2C A4U G5U G7U C13G C18A G19U G21A C42U reads 0.06; that for A4U A25G C37A, 2.43; that for G30A G35C A39G, 0.05. The result for C3A U9G C13U reads 1.01; that for G5A C8A A12C A14C U34G, 0.02; that for C3U U20C C31A G33U, 0.05. The result for G22U C31A A41U C42G reads 0.02.

With A6C C13U G22A G35U A41G, the self-cleavage was determined as 1.37.

As for C10A U20G C46U, the self-cleavage was determined as 0.09. Under A6C C8U G30U G35U A41C U43A C46A stands 0.05. In the case of G1A U28G U34C C45U, the self-cleavage stood at 0.04. Turning to U20G G30A C45U, the self-cleavage came to 0.71. The result for C13A G44U C46U reads 0.06. The result for C23U G29U C37U C42G reads 0.01. The result for A11G A12G U28G reads 0. Take C3G A14G G40C: the self-cleavage amounted to 0.02. Under A6U A14G C23A G33U stands 0.15; under A24U A39C G40A, 0.1; under A6G G19A G35U, 0. The result for G27U U28G U38C G44A reads 0.02; that for G2U A4U G29A, 0.03; that for C8A G22C G35U A39G C45G, 0.08.

In the case of U28C G33A G35U, the self-cleavage was 0.23. The result for G19C U20C C45A reads 0.61; that for A4C G5A C15U U20A A24U, 0.03. The result for C3A C23U G30U reads 0.16; that for G5C C18G G22U A26G U32C, 0.01; that for C8U U20G U43A, 0.09. Turning to G1A A4G A11U G21U C31A U34G, the self-cleavage turned out to be 0. Take U9A C13U U28C A39U: the self-cleavage came out at 0.17. The result for C8U C18G A26C U32A C45U reads 0.05; that for G5C A6G C18A G19A G36A, 0.07; that for G19A G22A A24G U38C, 0.35.

Turning to C18G G19C U28C G33U C46G, the self-cleavage amounted to 0.27. Under C3U G5A C15U G30A U43A stands 0.1; under A12C G19A C23G U34G A41G, 0.03. Under A14G G17A G36U C46A stands 0.04; under C10U G21U G40A C42G, 0.03; under A16G U28C A39G, 0.03. The result for A11C C23A C31G reads 0.01; that for C18U A26U A41G, 1.1.

G1C C10A A25G G44A: the self-cleavage worked out at 0.02.

For A25G G30U G36A, the self-cleavage was found to be 0.04.

As to G1A A4G G5C, the self-cleavage was 0.16. The result for A4G C8G A12U C31A C45U reads 0.01; that for U9C C10U G17A C18G C31G G36U, 0.02; that for A16U G29A G33C G35A, 0.03. Under G1A A24U G27U G44C stands 1.6; under C23G U28C G35C C45A, 0.04.

On to G2C A4C C31A, for which the self-cleavage is 0.06. The result for C18G C23A C31U reads 0.02; that for G5A C8U A14U A24U C31A, 0.17; that for G21C G22U G36A, 0.04. Under A4C A11C G30A stands 0.03; under G1U G5U A12G G44A, 0.02. Under G7C G17U A26G stands 0.13. For the variant A14U C23G G36A C42A, the self-cleavage came out at 0.08. Under A4G A6U U9A stands 0.03; under G7A C8G C10U G22A, 0.02. The result for G7U G21A C23U U28A G33A reads 0.07; that for G2C C15G A16U G22A C31A A39G, 0.04; that for G2C U20C C31A, 0.02. The result for U9C A11U A14C U34G reads 0.01; that for G5U C8G U9C, 0.03. Consider A4U C23U G35A, for which the self-cleavage worked out at 0.91. The result for C13A A25G G36A reads 0.03; that for A25C U34A A39G, 0.03. Take G27U C37G G44A: the self-cleavage stood at 0.39.

A11C G19A G22U: the self-cleavage worked out at 0.14. Under C15G G19U C23U stands 0.06. Turning to G2A C23G G36U, the self-cleavage was found to be 0.04. The result for C15U G33A G44C reads 0.53; that for C13A A39U C45G, 0.25; that for C13A C23G A25U G35U, 0.25. For the variant G5C G7A G29U G30C G35C, the self-cleavage came out at 0.28. Under C3U A4C A11C G22U G44U stands 0; under G5A A16C U34C, 0.07; under A4G A11U C31U A41C, 0.02. The result for U9G U32C G33A C37U reads 0.04. The result for C3A G19U G33U reads 0.04; that for G1A C31U G40C, 0.06.

Take G5U A6G U9C A12C G21A A26C C31A: the self-cleavage stood at 0.01. Under G2A G36U G44C stands 0.22; under G5A C10U G17U, 0.06. Under G5C C10G C13G U20C C31U stands 0.03. Under G2C C3A C15A G19U U38A stands 0.04; under C10A U28C G29U G30U C31A C42U, 0.01; under C10A G17C C31A G40A, 0.02.

For A4C G5A A6C G21U U32A G35A C45A, the self-cleavage came out at 0.02. The result for U32G C42A U43A reads 0.08; that for C8U C23A U34A, 0.04. Under G5C C23G A26G stands 0.02; under U20C G21U A39U C42G C46A, 0.01; under C23A C31U U34A, 0. As for G33A G36U G44A, the self-cleavage was 0.1. The result for G2C G30U U38G reads 0.37; that for C3U G5C G7U C10U G22A C31A U32G, 0.03; that for C3A A16C A26C C31G, 0.04.

Take U28G U43A C46U: the self-cleavage turned out to be 0.02. With A4C C10A G29C U32C U34A C46U, the self-cleavage is 0.01. The result for C8G C10A C13G G33U reads 0.01; that for C13A A14C G17C C37A, 0.07. The result for G7A G17U G33U reads 0.13; that for G5U G22U A24G C31U C37U, 0.01; that for G7C A26C G33A G44U C45U, 0.02. Consider A6G C18U U38G A39C G40U A41C, for which the self-cleavage worked out at 0.07.

Regarding A4C C8A A12U C42U, the self-cleavage is 0.41. Under C18A G22U A25C stands 0.66; under C8A U28G G33A, 0.06; under G2U G27C G29A G33A, 0.02. The result for A4G U9G G19U A41C reads 0.09; that for G7A C8G A25U, 0.1; that for G2U U43G C46G, 0.02. Under A4C G29A G44A stands 0.04.

Consider G19U G27C U34C C37A, for which the self-cleavage is 0.02. The result for A11G A12C G21C U38A reads 0.02; that for A6G U9G U20A C37U A41C, 0.02. The result for A24G G27U G29U reads 1; that for C18A A26U G36A C46G, 0.02. The result for G1A A14G G29U C37G reads 0.11. For the variant C3A C10A C37U A41C, the self-cleavage worked out at 0.01. Under G5U G17U G30A U32G stands 0.02; under C3U A4C C31U G33A, 0.07; under A24U G33U U34C, 0.03. Under G7U C10A A14C U38A stands 0.02; under C13A A25U G36U, 0.03. Under A14U G33A C42U stands 0.02; under G33U G35C G36C A39G G44C, 0.01.

For G1C G7A A16U G40C, the self-cleavage came to 0.01. The result for G2C G17A C31A G44C reads 0.02; that for A11C C18A G22A C23A G27A, 0.01.

As for A12C G17C U28A A41U C42U C46A, the self-cleavage worked out at 0.

For G1U G2C C10A A16U C23U A25G G36A, the self-cleavage was found to be 0.01. The result for G7U C18A G36A A39U reads 0.42; that for C10A G17U G29U U38G, 0.04. The result for G2A C8U A12U A24G G33A reads 0.03; that for U9A G17C A26C G30C G33U, 0.02.

Regarding U9A C13G A14G U20A G40A, the self-cleavage was 0.24. Take G17A A25U U38A: the self-cleavage was found to be 0.1. Under G30C U38C A39U stands 0.87; under A4G A11U G35U C46G, 0.02; under G2U C10A G30A, 0.01. Under C8U C15U A25U stands 0.36; under A14G C31A G33C C37G, 0.02; under G2A G7C C15U C45A, 0.4.

In the case of U9G G21U G27C G36U C37A, the self-cleavage was 0.28. Regarding A4G C15G A41U C42A, the self-cleavage was 0.03. In the case of C10A U38A C45G, the self-cleavage was found to be 0.06. Under G1U G5C C37A C46A stands 0.01; under C13A A14U C15A U38A, 0.16. The result for G27A G29U C31A C42G reads 0.07. Under A4G A6G C18A G19C A26U G30C G44U stands 0.06; under C8A A14U G21C, 0.08.

For the variant C8G C18G G19C A25U, the self-cleavage came out at 0.23. As for U20G A24U C31U C42U, the self-cleavage was 0. The result for G1U C8A U34A C46G reads 0.02.
